The whole screen tested about 310,000 compounds, of which about 2,200 (0.71%) showed an effect of 50% or more. The effect is printed as a negative number. This is one part of the list.
These compounds were tested against human ether-à-go-go-related gene (hERG) potassium channel (human, UniProt Q12809) (assay: primary screen, population patch clamp on CHO cells stably expressing hERG).
Chain of human ether-à-go-go-related gene (hERG) potassium channel (Q12809 whole entry, looked up): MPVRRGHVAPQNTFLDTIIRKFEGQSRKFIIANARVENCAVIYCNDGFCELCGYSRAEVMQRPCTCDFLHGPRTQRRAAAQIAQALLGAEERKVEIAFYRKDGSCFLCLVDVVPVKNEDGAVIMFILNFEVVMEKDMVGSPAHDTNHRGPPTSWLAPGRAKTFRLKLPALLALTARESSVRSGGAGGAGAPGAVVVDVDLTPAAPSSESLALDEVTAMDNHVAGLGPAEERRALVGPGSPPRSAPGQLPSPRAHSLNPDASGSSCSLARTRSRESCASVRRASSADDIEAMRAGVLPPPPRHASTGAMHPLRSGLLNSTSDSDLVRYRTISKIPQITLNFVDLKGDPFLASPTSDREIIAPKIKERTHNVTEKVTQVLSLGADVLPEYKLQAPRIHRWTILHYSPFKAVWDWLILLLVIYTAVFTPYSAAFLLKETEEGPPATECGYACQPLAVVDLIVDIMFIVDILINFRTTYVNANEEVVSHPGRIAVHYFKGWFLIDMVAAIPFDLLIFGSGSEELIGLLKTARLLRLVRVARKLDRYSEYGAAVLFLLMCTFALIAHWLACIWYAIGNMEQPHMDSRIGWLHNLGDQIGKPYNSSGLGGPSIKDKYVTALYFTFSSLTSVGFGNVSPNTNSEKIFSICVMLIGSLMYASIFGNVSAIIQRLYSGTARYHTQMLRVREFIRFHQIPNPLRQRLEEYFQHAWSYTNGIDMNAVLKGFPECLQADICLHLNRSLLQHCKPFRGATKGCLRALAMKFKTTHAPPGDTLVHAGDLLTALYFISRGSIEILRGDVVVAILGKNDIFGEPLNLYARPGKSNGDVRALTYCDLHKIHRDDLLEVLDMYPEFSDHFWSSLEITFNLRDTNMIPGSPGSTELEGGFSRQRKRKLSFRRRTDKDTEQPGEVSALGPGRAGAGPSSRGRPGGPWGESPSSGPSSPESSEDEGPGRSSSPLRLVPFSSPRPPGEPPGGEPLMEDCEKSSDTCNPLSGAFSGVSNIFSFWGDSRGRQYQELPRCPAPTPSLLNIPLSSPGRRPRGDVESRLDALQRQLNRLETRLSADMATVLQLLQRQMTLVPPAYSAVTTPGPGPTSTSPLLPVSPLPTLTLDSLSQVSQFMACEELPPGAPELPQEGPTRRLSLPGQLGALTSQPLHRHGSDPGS

SMILES	hERG current change (%, negative = inhibition) at 1uM [%]
Cc1noc(C)c1CSCC(=O)N(CCC(C)C)c1c(N)n(Cc2ccccc2)c(=O)[nH]c1=O	-1.82
CCCN(CCC)CCCNC(=O)c1cn(C)c2ccc(S(=O)(=O)N(C)C3CCCCC3)cc2c1=O	-34.7
O=C(Nc1ccccc1)Nc1ccno1	15.7
C1CCc2nnc(C3CC3)n2CC1	4.75
COc1ccc(CCNC(=O)CNCC(c2ccccc2)N(C)C)cc1OC.O=C(O)C(=O)O (centres unmarked)	18.7
O=C(Nc1ccc(C(=O)N2CCOCC2)cc1)Nc1cccc(Cl)c1	4.28
CCOC(=O)c1cc2sccc2n1CC(=O)OC	9.17
CCCCNC(=O)NS(=O)(=O)c1ccc(NC(=O)CCC(=O)c2cccs2)cc1	18.4
CC1CN(C(=O)CCC(=O)NCCc2ccccc2)c2ccccc2O1 (centres unmarked)	8.02
O=C(O)c1ccc(-n2nnc3ccccc32)c([N+](=O)[O-])c1	20.2
CCc1cccc(C)c1NC(=O)c1ccc(CN2CCc3ccccc3C2)cc1	12.6
Cc1ccc(OCC(O)CNC(=O)c2ccccc2C(=O)O)cc1 (centres unmarked)	11.9
O=C(CNC(=O)Cc1ccccc1)NCC(=O)OCC(=O)c1ccc(Cl)cc1	10.8
Cc1cc(Nc2ccc3c(c2)OCCO3)n2nc(C)nc2n1	0.891
CC(C)Oc1ccc(N2CC(C(=O)Nc3ccccc3F)CC2=O)cc1 (centres unmarked)	8.34
N/C(=N\OC(=O)c1cccc(F)c1)c1ccccc1	8.36
Cn1c(C(=O)NCC2CCCO2)cc2oc3ccccc3c21 (centres unmarked)	7.45
Cc1cc(C)c(OCCn2ccnc2)c(C)c1	20.3
CC(=O)c1cccc(NC(=O)CCNC(=O)c2ccccc2Cl)c1	10.5
Cc1cccc(C)c1OCCOC(=O)c1cccc(S(=O)(=O)N2CCOCC2)c1	3.47
O=C(O)CN1C(=O)COc2cc(S(=O)(=O)N3CCCC3)ccc21	8.13
CCOC(=O)c1ccc(COC(=O)c2cc3ccccc3oc2=O)o1	6.51

SMILES	hERG current change (%, negative = inhibition) at 1uM [%]
CCOC(=O)N1CCN(c2c(Nc3ccc4c(c3)OCCO4)c(=O)c2=O)CC1	15.4
Cc1ccnc(SCC(=O)O)n1	9.66
NS(=O)(=O)c1ccc(CCNC(=O)CSc2nc3ccsc3c(=O)n2CC2CCC(C(=O)O)CC2)cc1 (centres unmarked)	18.5
O=C(O)c1cc(S(=O)(=O)NC(Cc2c[nH]c3ccccc23)C(=O)O)ccc1Cl (centres unmarked)	11.9
COC(=O)C1[C@H]2C(=O)N(Cc3cccs3)C[C@]23C=C[C@H]1O3 (some centres unmarked)	-4.46
CC(=O)Nc1ccc(C(=O)CSc2cc(C)c3cccc(C)c3n2)cc1	14.7
Cc1ccc2c(CC(=O)OCc3csc(C)n3)coc2c1	17.2
O=C(c1cnccn1)N1CCc2ccccc21	15.7
Cl.Nc1ccc2nc(CCCO)[nH]c2c1	9.88
COCCN1C(=O)C(=O)/C(=C(/O)c2cccc(OC)c2)C1c1ccc(C)o1 (centres unmarked)	-3.8
CS(=O)(=O)N1CCC(C(=O)NCc2ccco2)CC1	11.3
CCSc1[nH]c2ccccc2[nH+]1.[Cl-]	10.8
Cc1[nH]n2c(=O)c(C#N)c(-c3ccccc3)nc2c1-c1ccccc1	12.1
COc1cccc(CNC(=O)CN2CCC(c3nc4ccc(C)cc4[nH]3)CC2)c1	-17.8
CC1SC(C)C(=O)N(CC(=O)Nc2ccc([N+](=O)[O-])cc2)C1=O (centres unmarked)	5.92
N/C(=N\N=C\c1cccs1)SC1CC(=O)N(c2cccc([N+](=O)[O-])c2)C1=O (centres unmarked)	9.86
Nc1oc2ccccc2c(=O)c1C=O	5.34
Cc1ccc(O)c(Nc2ncnc3ccccc23)c1.Cl	10.7
CN(C)C(CNC(=O)c1ccc(Br)cc1)c1ccco1 (centres unmarked)	17.7
O=C(NCCCN1CCOCC1)c1cc2ccccc2o1	10.8
O=C(CN(C(=O)CCC(=O)Nc1nccs1)c1cccc(F)c1)NCc1ccccc1	11
CCCC(=O)C1=C(O)C(C(=O)OC)C(C)(C)CC1=Nc1ccncc1 (centres unmarked)	2.98
